About 1,200 (0.29%) of roughly 410,000 compounds were called active. Inconclusive results, whose numbers are uncertain, are shown with a selection of clear calls. Calls come from the whole dose curve; as a rule, active = well fitted activation curve with a large enough effect; inconclusive = small, poorly fitted or top-dose-only effect; inactive = flat fitted curve, though single readings scatter. Potencies beside an inconclusive call are fits to weak or partial responses and may not hold up.
Experiment: qHTS of Nrf2 Activators; note: nearly all actives have a fitted effect of over 65% in size
Settings: AREc32 ARE-luciferase reporter (MCF7-derived line), luminescence, 24 h; series mostly up to 46.1 µM
In short: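 Reporter line AREc32 (ARE-Fluc), seeded overnight in OPTI-MEM with 5% FBS; compound pin-transferred, 24 hr at 37 deg C, 5% CO2; luminescent read-out.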
Potency is the fitted concentration of half-maximal effect; tags give direction and shape of the fitted curve.

Potency, inactive:
O=C(COC(=O)CNC(=O)c1ccc(Cl)cc1Cl)Nc1cccc(S(=O)(=O)N2CCCC2)c1
COc1cccc(CN(C)C(=O)CNC(=O)c2sc3ccccc3c2Cl)c1OC
Cc1cc2oc(=O)cc(CN3CCCCCCC3)c2cc1Cl
CCOc1ccc(C(=O)Nc2ccc(OCc3cc(=O)n4cccc(C)c4n3)cc2)cc1
CCOC(=O)COc1ccc2nsnc2c1
NC(Cc1ccc(Cl)cc1)c1csc(Nc2ccc(C(F)(F)F)cn2)n1 (stereo not drawn)
O=C(NCCCN1CCCCC1)c1ccc2c(c1)ncn2C1CCCC1
CC1(c2ccc(OCC#N)cc2)C=C(c2ccc(OCC#N)cc2)n2nc(C(F)(F)F)nc2N1 (stereo not drawn)
CCS(=O)(=O)NCCc1csc2nc(-c3ccc(OC)cc3)nn12
COc1cc(NC(=O)Cc2noc3ccccc23)cc(OC)c1OC
COC(=O)c1ccc(NC(=O)CC2C(=O)N(c3ccccc3)C(=O)N2Cc2cccs2)cc1 (stereo not drawn)
O=C(CSc1cccc2cccnc12)Nc1cccc(S(=O)(=O)N2CCOCC2)c1
CSc1cccc(NC(=O)c2cc3c(COC(C)=O)cnc(C)c3oc2=O)c1
CC(=O)Nc1ccc(C2Nc3ccccc3C(=O)N2C2CCCCC2)cc1 (stereo not drawn)
Cc1cc(C)cc(N(CC(=O)NCCc2ccc(Cl)cc2)S(=O)(=O)c2c(C)noc2C)c1
O=C1CC(=O)N(CCNc2ncc(C(F)(F)F)cc2Cl)C(=O)N1
O=C1N=C(N2CCN(c3cccc4ccccc34)CC2)S/C1=C/c1cccs1
CCN(CC)S(=O)(=O)c1nnc(NC(=O)c2ccc(Br)cc2)s1
Cn1c(NCc2ccco2)nc2c1c(=O)n(Cc1ccc(Cl)cc1Cl)c(=O)n2C
Cc1cccc(C(=O)NNC(=O)c2cc3cc4ccccc4nc3s2)c1
C=CCSC1=N/C(=C\c2cc(OCC)c(OC(C)=O)c([N+](=O)[O-])c2)C(=O)S1
C=CCNC(=S)NS(=O)(=O)c1cccs1

Potency, inconclusive:
O=c1cc(CCl)nc2scc(-c3ccccc3)n12 35.5 µM [activator, single point]
Nc1nc(-c2ccco2)nc(N2CCCCC2)n1 12.6 µM [activator, partial curve, poor fit]
CCOC(=O)C1CCN(C(=O)CSc2c3c(nc4ccccc24)CCC3)CC1 20 µM [activator, single point]
CCCC(=O)Nc1nc(-c2ccc(Cl)s2)cs1 10 µM [activator, partial curve, poor fit]
N#CC1=C(N)S[C@H](C(=O)C23CC4CC(CC(C4)C2)C3)[C@H]1c1ccncc1 20 µM [activator, single point]
O=C(/C=C/c1ccco1)Nc1ccc(Oc2ccccc2)cc1 12.6 µM [activator, single point]
CCCn1cccc(C(=O)Nc2ccc(OC)cc2)c1=O 11.2 µM [activator, partial curve]
COc1ccc(CN=Cc2[nH]c3ccc(Br)c(Cl)c3c2O)cc1 14.1 µM [activator, single point]
CC(=O)c1cccc(NC(=O)c2sc(Cl)nc2C)c1 15.8 µM [activator, single point]
Cc1nn2c3c(cnc2c1-c1ccc(Cl)cc1)C(=O)CC(c1ccco1)C3 (stereo not drawn) 20 µM [activator, partial curve, poor fit]
CCOc1ccc(NC(=O)c2nc(S(=O)(=O)Cc3ccccc3F)ncc2Cl)cc1 3.16 µM [activator, single point]
Cc1cccc(NC(=S)NC(=O)/C=C/c2ccco2)n1 31.6 µM [activator, single point]
COc1ccc(C(=O)NCC(=O)N/N=C/C(C)=C/c2ccco2)cc1OC 2 µM [activator, partial curve, poor fit]
Cc1ccsc1C(=O)OCc1csc(-c2ccccc2)n1 11.2 µM [activator, partial curve]
Cc1ccc(/C=C/C(=O)N2CCN(c3ncccn3)CC2)o1 31.6 µM [activator, single point]
CCOC(=O)c1sc(-c2ccccc2)nc1C 20 µM [activator, single point]
O=C(/C=C/c1c(F)cccc1Cl)Nc1ccncc1 20 µM [activator, single point]
CCc1ccc(O)c(N=Cc2ccccc2O)c1 15.8 µM [activator, single point]
N#C/C(=C\c1cccc(NC(=O)c2ccccc2Cl)c1)C(=O)NCCc1ccccc1 25.1 µM [activator, single point]
CN=c1sc2ccccc2n1CC(O)COCc1ccco1 (stereo not drawn) 10 µM [activator, partial curve, poor fit]
CC(=O)Nc1nc2cccc([N+](=O)[O-])c2s1 10 µM [activator, partial curve, poor fit]
COc1ccccc1C(=O)NNC(=O)c1cccc(F)c1 3.55 µM [activator, single point]
O=C1NC(c2ccccc2)N=C2Oc3ccccc3C=C12 (stereo not drawn) 17.8 µM [activator, partial curve, poor fit]
CC1(C)CC(=O)c2sc(NC(=O)c3ccco3)nc2C1 11.2 µM [activator, partial curve, poor fit]
Cc1cc(C)n(CCC(=O)N/N=C/c2ccc(Cl)c([N+](=O)[O-])c2)n1 25.1 µM [activator, single point]
O=C(CSc1nnc(NC(=O)c2cccc(Br)c2)s1)NCC1CCCO1 (stereo not drawn) 8.91 µM [activator, partial curve, poor fit]
c1cncc(-c2noc(-c3cccc4ccccc34)n2)c1 1.41 µM [activator, full curve, poor fit]
O=C(/C=C/c1cc2ccccc2o1)c1ccccc1O 22.4 µM [activator, single point]
Cc1ccc(N=C/C(C(=O)C(F)(F)F)=C(\O)c2cccs2)cc1 22.4 µM [activator, single point]
COc1ccc(CCNC(=O)/C(C#N)=C/c2cccc(OCc3ccccc3)c2)cc1OC 31.6 µM [activator, single point]
COc1ccc(OC)c(/C=C/c2[nH]c(=O)[nH]c(=O)c2[N+](=O)[O-])c1 28.2 µM [activator, single point]
Cc1cc2sc(NC(=O)c3ccco3)nc2cc1Cl 1.58 µM [activator, partial curve, poor fit]
O=C1N[C@@H](Cc2cn(S(=O)(=O)c3ccc([N+](=O)[O-])cc3)c3ccccc23)C(=O)N[C@H]1Cc1ccccc1 12.6 µM [activator, single point]
CCOC(=O)c1c(CC(C)C)csc1NC(=O)CCl 31.6 µM [activator, single point]
Cc1ccccc1C(=O)c1c[nH]c(C(=O)NCc2ccco2)c1 15.8 µM [activator, single point]
COc1ccc(OC)c(/C=C/C(=O)NC2=NCCS2)c1 17.8 µM [activator, single point]
CCC1CCc2c(sc(NC(=O)c3ccco3)c2C(N)=O)C1 (stereo not drawn) 14.1 µM [activator, partial curve, poor fit]
O=C(/C=C/c1cccnc1)c1ccc(O)cc1 31.6 µM [activator, single point]
NC(=O)C1=C[C@@H](c2csc3ccccc23)C[C@@H](OCc2ccc(CO)cc2)O1 35.5 µM [activator, partial curve, poor fit]
COCCN(C(=O)c1ccco1)c1nnc(-c2ccc(F)cc2)s1 17.8 µM [activator, partial curve, poor fit]
C/C(=N\Nc1ccccn1)c1cccs1 6.31 µM [activator, full curve, poor fit]
CSC(=S)N/N=C(\C)c1ccc(Br)cc1 12.6 µM [activator, single point]
N#C/C(=C\c1ccco1)c1nc2ccccc2s1 2.24 µM [activator, full curve, poor fit]
CC(=O)/C=C\c1cn(-c2ncc(C(F)(F)F)cc2Cl)c2ccccc12 35.5 µM [activator, single point]

Potency, active:
COc1ccc(Cc2c(-c3ccccc3)nc3c4ccccc4ccn23)c(C)c1 5.01 µM
O=C(Nc1cccc([N+](=O)[O-])c1)c1[nH]ncc1Cl 5.01 µM
COC(=O)c1ccsc1NC(=O)CCS(=O)(=O)c1ccccc1 12.6 µM
O=C(Nc1ccc2[nH]c3c(c2c1)CCCC3)c1ccco1 12.6 µM
N/C(=N\OC(=O)c1ccco1)c1ccccc1 17.8 µM
O=c1[nH]n(Cc2ccccc2)c(=O)c2ccccc12 5.01 µM
O=C(Nc1cc2c(oc1=O)CCCC2=O)c1cccc(Cl)c1 11.2 µM

From PubChem BioAssay AID624171 (National Center for Advancing Translational Sciences (NCATS), 2012)
